Patent publication US8415310B2, “Isoxazoline derivatives as antiparasitic agents” (AH USA 42 LLC, priority 2010, dated 2013)
Some entries share one result that the patent states for a list of compounds.

Experiments:
Type in all cases: in vivo
Stomoxys calcitrans = assay: Stable Fly (Stomoxys calcitrans) Topical Assay; conditions: 1 μL in acetone on thorax of fly (n=10); knockdown and mortality at 2 and 24 hours
Ctenocephalides felis = assay: Flea (Ctenocephalides felis) Membrane Feed Assay-Adult; conditions: adult fleas fed on treated citrated bovine blood approximately 2 hours; knockdown and/or death at approximately 2 and 24 hours
Haematobia irritans = assay: Horn Fly (Haematobia irritans) Feed Assay; conditions: horn flies fed on treated citrated bovine blood; knockdown and mortality at approximately 2 and 24 hours
[1] = test system: fleas, ticks, flies, and or sea lice; assay: at least one of the bio-assays (summary statement); conditions: assay not specified

Compound	lethal dose 90% (LD^90) (Stomoxys calcitrans)	lethal dose 90% (LD^90) (Ctenocephalides felis)	lethal dose 90% (LD^90) (Haematobia irritans)	ED^100, LD^100, LD^90, and/or ED^80 value within at least one of the bio-assays [1]
O=C(C1CC1)N1CC(F)(c2ccc(C3=NOC(c4cc(Cl)c(Cl)c(Cl)c4)(C(F)(F)F)C3)cc2)C1 (stereo not drawn) [Example 2, Cyclopropyl(3-fluoro-3-(4-(5-(3,4,5-trichlorophenyl)-5-(trifluoromethyl)-4,5-dihydroisoxazol-3-yl)phenyl)azetidin-1-yl)methanone]	≤ 0.03 μg/fly	≤ 1 µg/mL	≤ 3 µg/mL	–
CNC(=O)N1CC(F)(c2ccc(C3=NOC(c4cc(Cl)c(Cl)c(Cl)c4)(C(F)(F)F)C3)cc2)C1 (stereo not drawn) [Example 3, 3-fluoro-N-methyl-3-(4-(5-(3,4,5-trichlorophenyl)-5-(trifluoromethyl)-4,5-dihydroisoxazol-3-yl)phenyl)azetidine-1-carboxamide]	≤ 1 μg/fly	≤ 1 µg/mL	≤ 1 µg/mL	–
O=C(NC1CC1)N1CC(F)(c2ccc(C3=NOC(c4cc(Cl)c(Cl)c(Cl)c4)(C(F)(F)F)C3)cc2)C1 (stereo not drawn) [Example 5, N-cyclopropyl-3-fluoro-3-(4-(5-(3,4,5-trichlorophenyl)-5-(trifluoromethyl)-4,5-dihydroisoxazol-3-yl)phenyl)azetidine-1-carboxamide]	–	≤ 0.3 µg/mL	≤ 1 µg/mL	≤ 0.01 μg/mL or μg/fly
O=C(C1CC1)N1CC(F)(c2ccc(C3=NOC(c4cc(Cl)cc(Cl)c4)(C(F)(F)F)C3)cc2)C1 (stereo not drawn) [Example 6, Cyclopropyl(3-(4-(5-(3,5-dichlorophenyl)-5-(trifluoromethyl)-4,5-dihydroisoxazol-3-yl)phenyl)-3-fluoroazetidin-1-yl)methanone]	≤ 0.1 μg/fly	≤ 1 µg/mL	≤ 3 µg/mL	–
CCNC(=O)N1CC(F)(c2ccc(C3=NOC(c4cc(Cl)cc(Cl)c4)(C(F)(F)F)C3)cc2)C1 (stereo not drawn) [Example 9, 3-(4-(5-(3,5-dichlorophenyl)-5-(trifluoromethyl)-4,5-dihydroisoxazol-3-yl)phenyl)-N-ethyl-3-fluoroazetidine-1-carboxamide]	≤ 0.03 μg/fly	–	≤ 0.3 µg/mL	–
CCCC(=O)N1CC(F)(c2ccc(C3=NOC(c4cc(Cl)c(F)c(Cl)c4)(C(F)(F)F)C3)cc2)C1 (stereo not drawn) [Example 12, 1-(3-(4-(5-(3,5-dichloro-4-fluorophenyl)-5-(trifluoromethyl)-4,5-dihydroisoxazol-3-yl)phenyl)-3-fluoroazetidin-1-yl)butan-1-one]	≤ 0.03 μg/fly	≤ 1 µg/mL	≤ 3 µg/mL	–
N#CCC(=O)N1CC(F)(c2ccc(C3=NOC(c4cc(Cl)c(F)c(Cl)c4)(C(F)(F)F)C3)cc2)C1 (stereo not drawn) [Example 14, 3-(3-(4-(5-(3,5-dichloro-4-fluorophenyl)-5-(trifluoromethyl)-4,5-dihydroisoxazol-3-yl)phenyl)-3-fluoroazetidin-1-yl)-3-oxopropanenitrile]	≤ 1 μg/fly	≤ 1 µg/mL	≤ 1 µg/mL	–
CNC(=O)N1CC(F)(c2ccc(C3=NOC(c4cc(Cl)c(Cl)c(C(F)(F)F)c4)(C(F)(F)F)C3)cc2)C1 (stereo not drawn) [Example 26, 3-(4-(5-(3,4-dichloro-5-(trifluoromethyl)phenyl)-5-(trifluoromethyl)-4,5-dihydroisoxazol-3-yl)phenyl)-3-fluoro-N-methylazetidine-1-carboxamide]	≤ 0.1 μg/fly	≤ 1 µg/mL	≤ 1 µg/mL	–
CCNC(=O)N1CC(F)(c2ccc(C3=NOC(c4cc(Cl)c(Cl)c(C(F)(F)F)c4)(C(F)(F)F)C3)cc2)C1 (stereo not drawn) [Example 27, 3-(4-(5-(3,4-dichloro-5-(trifluoromethyl)phenyl)-5-(trifluoromethyl)-4,5-dihydroisoxazol-3-yl)phenyl)-N-ethyl-3-fluoroazetidine-1-carboxamide]	≤ 1 μg/fly	≤ 0.1 µg/mL	≤ 1 µg/mL	–
CNC(=O)N1CC(F)(c2ccc(C3=NOC(c4cc(Cl)cc(C(F)(F)F)c4)(C(F)(F)F)C3)cc2)C1 (stereo not drawn) [Example 38, 3-(4-(5-(3-chloro-5-(trifluoromethyl)phenyl)-5-(trifluoromethyl)-4,5-dihydroisoxazol-3-yl)phenyl)-3-fluoro-N-methylazetidine-1-carboxamide]	–	≤ 0.3 µg/mL	≤ 0.3 µg/mL	≤ 0.01 μg/mL or μg/fly
O=C(N1CC(F)(c2ccc(C3=NOC(c4cc(Cl)cc(Cl)c4)(C(F)(F)F)C3)cc2)C1)C1(O)CC1 (stereo not drawn) [Example 54, 1-[(3-{4-[5-(3,5-dichlorophenyl)-5-(trifluoromethyl)-4,5-dihydroisoxazol-3-yl]phenyl}-3-fluoroazetidin-1-yl)carbonyl]cyclopropanol]	–	≤ 1 µg/mL	≤ 0.3 µg/mL	≤ 0.01 μg/mL or μg/fly
COCC(=O)N1CC(F)(c2ccc(C3=NOC(c4cc(Cl)c(Cl)c(Cl)c4)(C(F)(F)F)C3)cc2)C1 (stereo not drawn) [Example 56, 3-{-4-[3-fluoro-1-(methoxyacetyl)azetidin-3-yl]phenyl}-5-(3,4,5-trichlorophenyl)-5-(trifluoromethyl)-4,5-dihydroisoxazole]	–	≤ 1 µg/mL	≤ 1 µg/mL	≤ 0.03 µg/mL
O=C(CO)N1CC(F)(c2ccc(C3=NOC(c4cc(C(F)(F)F)cc(C(F)(F)F)c4)(C(F)(F)F)C3)cc2)C1 (stereo not drawn) [Example 60, 2-[3-(4-{5-[3,5-bis(trifluoromethyl)phenyl]-5-(trifluoromethyl)-4,5-dihydroisoxazol-3-yl}phenyl)-3-fluoroazetidin-1-yl]-2-oxoethanol]	–	≤ 1 µg/mL	≤ 3 µg/mL	≤ 0.01 μg/mL or μg/fly
O=C(CC(F)(F)F)N1CC(F)(c2ccc(C3=NOC(c4cc(Cl)c(Cl)c(Cl)c4)(C(F)(F)F)C3)cc2)C1 (stereo not drawn) [Example 95, 3-{-4-[3-fluoro-1-(3,3,3-trifluoropropanoyl)azetidin-3-yl]phenyl}-5-(3,4,5-trichlorophenyl)-5-(trifluoromethyl)-4,5-dihydroisoxazole]	–	≤ 1 µg/mL	≤ 1 µg/mL	≤ 0.01 μg/mL or μg/fly
CCCC(=O)N1CC(F)(c2ccc(C3=NOC(c4cc(Cl)c(Cl)c(C(F)(F)F)c4)(C(F)(F)F)C3)cc2)C1 (stereo not drawn) [Example 103, 3-[4-(1-butyryl-3-fluoroazetidin-3-yl)phenyl]-5-[3,4-dichloro-5-(trifluoromethyl)phenyl]-5-(trifluoromethyl)-4,5-dihydroisoxazole]	–	≤ 1 µg/mL	–	≤ 0.03 µg/mL
O=C(N1CC(c2ccc(C3=NOC(c4cc(Cl)c(Cl)c(C(F)(F)F)c4)(C(F)(F)F)C3)cc2)C1)C1(O)CC1 (stereo not drawn) [Example 113, 1-{[3-(4-{5-[3,4-dichloro-5-(trifluoromethyl)phenyl]-5-(trifluoromethyl)-4,5-dihydroisoxazol-3-yl}phenyl)azetidin-1-yl]carbonyl}cyclopropanol]	–	≤ 1 µg/mL	–	≤ 1 μg/mL or μg/fly
O=C(CC(F)(F)F)N1CC(F)(c2ccc(C3=NOC(c4cc(Cl)c(Cl)c(C(F)(F)F)c4)(C(F)(F)F)C3)cc2)C1 (stereo not drawn) [Example 135, 5-[3,4-dichloro-5-(trifluoromethyl)phenyl]-3-{-4-[3-fluoro-1-(3,3,3-trifluoropropanoyl)azetidin-3-yl]phenyl}-5-(trifluoromethyl)-4,5-dihydroisoxazole]	–	≤ 1 µg/mL	≤ 3 µg/mL	≤ 0.03 µg/mL
C=CCC(=O)N1CC(F)(c2ccc(C3=NOC(c4cc(Cl)c(F)c(Cl)c4)(C(F)(F)F)C3)cc2)C1 (stereo not drawn) [Example 146, 3-[4-(1-but-3-enoyl-3-fluoroazetidin-3-yl)phenyl]-5-(3,5-dichloro-4-fluorophenyl)-5-(trifluoromethyl)-4,5-dihydroisoxazole]	–	≤ 1 µg/mL	–	≤ 0.01 μg/mL or μg/fly
O=C(C1CC1)N1CC(Cl)(c2ccc(C3=NOC(c4cc(Cl)c(Cl)c(C(F)(F)F)c4)(C(F)(F)F)C3)cc2)C1 (stereo not drawn) [Example 155, 3-{4-[3-chloro-1-(cyclopropylcarbonyl)azetidin-3-yl]phenyl}-5-[3,4-dichloro-5-(trifluoromethyl)phenyl]-5-(trifluoromethyl)-4,5-dihydroisoxazole]	–	≤ 3 µg/mL	–	≤ 0.03 µg/mL
C[C@@H](O)C(=O)N1CC(F)(c2ccc(C3=NOC(c4cc(Cl)c(F)c(Cl)c4)(C(F)(F)F)C3)cc2)C1 (stereo partly drawn) [Example 160, (2R)-1-(3-{4-[5-(3,5-dichloro-4-fluorophenyl)-5-(trifluoromethyl)-4,5-dihydroisoxazol-3-yl]phenyl}-3-fluoroazetidin-1-yl)-1-oxopropan-2-ol]	–	≤ 0.3 µg/mL	≤ 0.3 µg/mL	≤ 0.1 μg/mL or μg/fly
O=C(N1CCC1)N1CC(F)(c2ccc(C3=NOC(c4cc(Cl)c(F)c(Cl)c4)(C(F)(F)F)C3)cc2)C1 (stereo not drawn) [Example 175, 3-{4-[1-(azetidin-1-ylcarbonyl)-3-fluoroazetidin-3-yl]phenyl}-5-(3,5-dichloro-4-fluorophenyl)-5-(trifluoromethyl)-4,5-dihydroisoxazole]	–	≤ 0.3 µg/mL	–	≤ 0.003 µg/mL
